# Data reported in the supplement of paper PMC9446081.
# The campaign covered roughly 39,000 compounds. About 220 (0.56%) showed activity. The list shows a part of the results.
# Tested on: Escherichia coli K-12 BW25113
# Assay: relative growth (OD600 normalised to plate interquartile mean) (fraction); higher = less growth inhibition, active = 0.2 or less
# Conditions: 50 µM; LB; incubation time: overnight (16-24 h)
# 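Further: static incubation at 37 °C against the wild-type strain, values averaged over two biological replicates.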
row,Compound,relative growth
1,C[C@@H]1CN([C@H](C)CO)C(=O)c2cc(NC(=O)C3CCCCC3)ccc2O[C@@H](C)CCCCO[C@@H]1CN(C)Cc1ccc(C(=O)O)cc1,inactive: 0.984
2,O=C(NC1Cc2ccccc2C1)[C@H]1[C@H](CO)[C@H]2Cn3c(cccc3=O)[C@H]2N1C(=O)c1cnccn1,inactive: 0.993
3,C[C@H]1CN([C@@H](C)CO)C(=O)c2cc(-c3cncnc3)cnc2O[C@@H]1CN(C)C(=O)Nc1ccc2c(c1)OCO2,inactive: 0.982
4,C=c1nnsc1=C1NC(c2cc(C)on2)=NO1,inactive: 0.968
5,O=c1c(O)c(-c2ccccc2)oc2ccccc12,inactive: 1.04
6,CC(C)(C)c1ccc(S(=O)(=O)Nc2nccnc2-c2ccc(CNCc3ccc4c(c3)OCO4)cc2)cc1,inactive: 0.97
7,C[C@H](CO)N1C[C@H](C)[C@@H](CN(C)C(=O)Nc2ccc(C(F)(F)F)cc2)OCCCC[C@H](C)Oc2ccc(N(C)C)cc2C1=O,inactive: 0.961
8,C[C@H]1CN([C@@H](C)CO)C(=O)c2cc(C#CCN(C)C)cnc2O[C@@H]1CN(C)C(=O)Nc1ccccc1F,inactive: 0.996
9,C[C@H](CO)N1C[C@H](C)[C@@H](CN(C)Cc2ccc(C(F)(F)F)cc2)Oc2c(NC(=O)Nc3ccccc3)cccc2C1=O,inactive: 0.819
10,Cc1ccc(S(=O)(=O)Nc2ccc3c(c2)C(=O)N([C@@H](C)CO)C[C@H](C)[C@@H](CN(C)C(=O)Nc2ccc(F)cc2)OCCCC[C@@H](C)O3)cc1,inactive: 0.995
11,O=C1NCC[C@H]2[C@H]1N=C(N1CCCCC1)N2[C@H]1O[C@H](CO)[C@@H](O)[C@@H]1O,inactive: 1.03
12,CN(C)CC(=O)N1CC(=O)N2[C@@H](CO)[C@H](c3ccc(C#Cc4cccnc4)cc3)[C@@H]2C1,inactive: 1.02
13,Cc1nnn(C23C[C@@H]4C[C@@H](CC(NC(=O)[C@H](N)CC(C)C)(C4)C2)C3)n1,inactive: 1
14,C[C@@H]1CN([C@H](C)CO)C(=O)c2cc(NS(=O)(=O)c3cn(C)cn3)ccc2O[C@@H]1CN(C)C(=O)Nc1ccccc1,inactive: 0.976
15,C[C@@H]1CN([C@H](C)CO)C(=O)c2cc(NS(C)(=O)=O)ccc2O[C@H]1CN(C)Cc1ccc(C(=O)Nc2ccccc2N)cc1,inactive: 1.02
16,C=CCN1C(=O)[C@]2(O[C@@H](CCOC(=O)NCCCCCC(=O)NO)[C@H]([Si](C)(C)c3ccc(OC)cc3)[C@H]2C)c2cc(I)ccc21,inactive: 1.03
17,CCCn1nc(C)c(CN)c1C,inactive: 1.02
18,Cc1noc(C)c1S(=O)(=O)Nc1ccc2c(c1)C(=O)N([C@@H](C)CO)C[C@H](C)[C@@H](CN(C)C)OCCCC[C@H](C)O2,inactive: 0.983
19,C[C@@H]1CN([C@@H](C)CO)C(=O)CCCn2nncc2CO[C@@H]1CN(C)C(=O)c1ccc(N2CCN(C)CC2)cc1,inactive: 0.987
20,Cc1cn2c(nc1=O)O[C@@H]1C[C@H]2O[C@@H]1CO,inactive: 1

row,Compound,relative growth
1,C[C@H](CO)N1C[C@H](C)[C@@H](CN(C)C(=O)Nc2ccc3c(c2)OCO3)Oc2ccc(NC(=O)Nc3ccc(C(F)(F)F)cc3)cc2CC1=O,inactive: 0.976
2,C[C@@H]1CN([C@@H](C)CO)C(=O)Cc2cc(NC(=O)CCC(F)(F)F)ccc2O[C@@H]1CN(C)C(=O)Nc1ccc(C(F)(F)F)cc1,inactive: 0.995
3,CC(C)C1CCC(C(=O)NC(Cc2ccccc2)C(=O)O)CC1 (stereo not given),inactive: 1.18
4,CO[C@@H]1CN(C)C(=O)c2cc(NC(=O)c3ccc(F)cc3)ccc2OC[C@H](C)N(C(=O)CN(C)C)C[C@H]1C,inactive: 0.998
5,Nc1ccc(S(=O)(=O)Nc2ncccn2)cc1,inactive: 1.09
6,C[C@H](CO)N1C[C@H](C)[C@H](CN(C)Cc2ccc(C(F)(F)F)cc2)Oc2ccc(NC(=O)NC3CCCCC3)cc2C1=O,inactive: 0.925
7,C[C@@H]1CN([C@@H](C)CO)S(=O)(=O)c2ccc(Br)cc2O[C@@H]1CN(C)S(=O)(=O)c1ccccc1,inactive: 1.01
8,COc1ccc(NC(=O)N(C)C[C@@H]2Oc3c(NC(=O)c4cc(C)nn4C)cccc3C(=O)N([C@H](C)CO)C[C@@H]2C)cc1,inactive: 0.996
9,CC(C)NC(=O)N(C)C[C@@H]1Oc2ccc(NS(=O)(=O)c3ccc(Cl)cc3)cc2CC(=O)N([C@@H](C)CO)C[C@@H]1C,inactive: 0.995
10,C[C@H](O)C#Cc1ccc2c(c1)O[C@H](CN(C)C(=O)Nc1ccccc1)[C@H](C)CN([C@@H](C)CO)S2(=O)=O,inactive: 0.992
11,O=C(CN1CCOCC1)NCC[C@H]1CC[C@H](NS(=O)(=O)c2ccc(F)cc2)[C@@H](CO)O1,inactive: 0.984
12,C[C@H]1CN([C@@H](C)CO)S(=O)(=O)c2ccc(-c3cccc(C#N)c3)cc2O[C@H]1CN(C)C(=O)c1cccnc1,inactive: 1.01
13,C[C@H](CO)N1C[C@H](C)[C@@H](CN(C)Cc2ccc(-c3ccccc3)cc2)Oc2ccc(NC(=O)Cc3ccccc3)cc2CC1=O,inactive: 1.02
14,C[C@@H]1CCCCO[C@H](CN(C)CC2CC2)[C@@H](C)CN([C@H](C)CO)C(=O)c2cc(NC(=O)Nc3ccc4c(c3)OCO4)ccc2O1,inactive: 0.989
15,CCNC(=O)C=Cc1cccc(Br)c1,inactive: 0.88
16,C[C@@H]1CN([C@H](C)CO)C(=O)Cc2cc(NC(=O)Nc3ccccc3)ccc2O[C@@H]1CN(C)Cc1ccc(C(=O)Nc2ccccc2N)cc1,inactive: 0.971
17,C[C@H](CO)N1C[C@H](C)[C@H](CN(C)S(=O)(=O)c2ccc(Cl)cc2)Oc2ccc(NC(=O)Nc3ccc(C(F)(F)F)cc3)cc2CC1=O,inactive: 0.984
18,C[C@@H]1CCCCO[C@H](CN(C)C(=O)Nc2ccc(C(F)(F)F)cc2)[C@H](C)CN([C@@H](C)CO)C(=O)c2cc(NC(=O)c3ccncc3)ccc2O1,inactive: 1
19,COc1ccc(NC(=O)N(C)C[C@@H]2Oc3c(NC(=O)C4CC4)cccc3C(=O)N([C@@H](C)CO)C[C@@H]2C)cc1,inactive: 0.984
20,NC(=O)NCC#Cc1ccc2c(c1)[C@]1(C(=O)N2)[C@H](c2ccccc2OCCO)N2[C@H](c3ccccc3)[C@H](c3ccccc3)OC(=O)[C@H]2[C@@H]1C(=O)Nc1nc2ccccc2s1,inactive: 1.01
